# Measured values from PubChem BioAssay AID1347073 (National Center for Advancing Translational Sciences (NCATS), 2019).
# Hit rate of the full screen: of about 45,000 compounds, about 200 (0.44%) were called active. Roughly 7% stayed inconclusive and do not appear here. Calls follow the shape of the dose curve; as a rule, active = well fitted activation curve with a large enough effect; inconclusive = small, poorly fitted or top-dose-only effect; inactive = no such curve, though single readings can be large or run the other way. The list shows a part of the results.
# Assay: qHTS of TDP-43 Inhibitors: NCGC Sytravon Library Screen; also: 0% is about no effect; nearly all actives have a fitted effect of over 55% in size
# Conditions: yeast TDP-43 toxicity rescue, BacTiter-Glo growth, 24 h; series mostly up to 46.1 µM; growth rescue (activation): at the top concentration
# How it was run: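 TDP-43-expressing yeast, pregrown in raffinose, seeded at OD600 0.02 in galactose medium with compound for 24 hr at 30 deg C. Growth read by BacTiter-Glo luminescence, so rescue of toxicity appears as activation.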
row,Structure (SMILES),growth rescue (activation)
1,CCCc1nc2nc(C)c(NS(=O)(=O)c3ccc(Cl)cc3)c(=O)n2[nH]1,inactive: -0.174%
2,O=C(CSc1nnc(SCc2ccc(Cl)cc2)s1)N/N=C/c1ccc(C(=O)O)cc1,inactive: 14.4%
3,CCOC(=O)C1=C(N)Oc2c(oc(CO)cc2=O)C1c1ccc(Cl)cc1 (stereo not drawn),inactive: -14.2%
4,O=C(C1=C(O)C(=O)N(CC2CCCO2)C1c1cccc(Cl)c1)c1ccco1 (stereo not drawn),inactive: -9.59%
5,OC[C@H]1O[C@H](c2nc(-c3nc(-c4cccc(-n5cccc5)c4)no3)cs2)C[C@@H]1O,inactive: 3.4%
6,Cn1c(=O)c2c(-c3cccc(Br)c3)c(C#N)c(N)nc2n(C)c1=O,inactive: 28.2%
7,CCOc1ccc(N(CC(=O)NCc2ccc(Cl)cc2)S(=O)(=O)c2ccccc2)cc1,inactive: 8.2%
8,N/C(=N\c1nc2ccccc2o1)NC(=O)/C=C/c1ccccc1,inactive: 13%
9,Cc1cc(OCc2nc(-c3ccncc3)no2)cc(C)c1Cl,inactive: 3.36%
10,Fc1ccc(NC(=S)N2CCN(c3cccc(C(F)(F)F)c3)CC2)cc1,inactive: 0.326%
11,Cc1cccc(C)c1NC(=O)CNC(=O)c1cnccn1,inactive: 10%
12,CCOC(=O)C(C)(C)NS(=O)(=O)c1ccc(Cl)c([N+](=O)[O-])c1,inactive: 6.49%
13,CC(C)(C)C(=O)NCc1ccc(C(=O)CN2C(=O)NC3(CCCC3)C2=O)s1,inactive: 20.7%
14,O=[N+]([O-])c1cc(CN(CCO)CCO)ccc1O,inactive: 16%
15,O=C(Nn1cc(C(=O)N2CCN(c3ccccc3F)CC2)c2ccccc2c1=O)c1cnccn1,inactive: -4.09%
16,CSc1nnc(NC(=O)c2nc(S(=O)(=O)Cc3ccccc3F)ncc2Cl)s1,inactive: 12.7%
17,COc1ccc(Cc2nnc(NC(=O)c3cccs3)s2)cc1,inactive: -10.9%
18,O=S(=O)(NCCOCCNS(=O)(=O)c1ccccc1)c1ccccc1,inactive: 9.5%
19,CCc1nc2nc(C)c(NS(=O)(=O)c3cccs3)c(=O)n2[nH]1,inactive: 8.19%
20,O=C(N/N=C/c1c(Cl)cccc1Cl)C(=O)NC1CC1,inactive: 11.5%
21,Cn1c(N)c(C(=O)COC(=O)CC(NC(N)=O)c2ccc(Cl)cc2)c(=O)n(C)c1=O (stereo not drawn),inactive: 17.7%
22,Cc1ccc(-c2cc(C(F)(F)F)c(C#N)c(=O)[nH]2)cc1,inactive: -11.2%
23,CC1CCN(C(=O)Cn2c(=O)n(Cc3ccco3)c(=O)c3sccc32)CC1,inactive: 9.87%
24,Cn1c(CCCOc2ccc(Cl)cc2Cl)nnc1SCC(=O)Nc1ccc(F)c(Cl)c1,inactive: 11.3%
25,O=C(c1nc2ccccn2c1CN1CCCC(OCc2ccccc2)C1)N1CCCC1 (stereo not drawn),inactive: 12.8%
26,CN(C)c1ncnc2c1ncn2[C@H]1CN(Cc2ccc(-c3ccccc3)cc2)C[C@@H](CO)O1,inactive: 12.5%
27,CCCCCCC(C)n1[nH]c(=O)c2c(C)cc(C)nc21 (stereo not drawn),inactive: 30%

row,Structure (SMILES),growth rescue (activation)
1,Cn1c(CC(=O)Nc2ccccc2Cl)nnc1SCC(=O)NC1CCCCC1,inactive: 4.83%
2,O=C(O)COC(=O)C1C(c2ccccc2)C(C(=O)O)C1c1ccccc1 (stereo not drawn),inactive: -25%
3,COc1ccc(S(=O)(=O)N2CCC(C(=O)N3CCN(C)CC3)CC2)cc1OC,inactive: 4.55%
4,CNC(=O)/C(C#N)=C/c1cccc(Oc2ccccc2)c1,inactive: -91.1%
5,CC(C(=O)NN)c1ccc([N+](=O)[O-])cc1 (stereo not drawn),inactive: 4.36%
6,COc1ccc(CNC(=O)C2(C)Cc3c(-c4ccccc4)ccnc3O2)cc1OC (stereo not drawn),inactive: 0.827%
7,COc1cccc2cc(C(C)N(CCCN3CCOCC3)C(=S)Nc3c(C)cccc3C)oc12 (stereo not drawn),inactive: 1.11%
8,C=C(C)COc1ccc(-c2ncncc2-c2ccccc2OC)c(O)c1,inactive: 34.7%
9,Cc1cc(=O)[nH]c(Nc2cccc(C(F)(F)F)c2)n1,inactive: -5.79%
10,COCCNc1nnc(SCC(=O)c2c[nH]c3ccccc23)s1,inactive: -20.1%
11,CCc1nnc(SCC(=O)Nc2nnc(C)s2)n1CC1CCCO1 (stereo not drawn),inactive: 5.32%
12,CCOC(=O)C1CCN(CCCSc2ccc(C)cc2)CC1,inactive: 5.54%
13,Cn1nc(-c2ccc3c(c2)OCCO3)c2ccccc2c1=O,inactive: 4.45%
14,O=C(O)c1ccc(N2CC3CC(C2)c2cccc(=O)n2C3)c(NC(=S)Nc2ccc(Br)cc2)c1 (stereo not drawn),inactive: 20.1%
15,COc1cc(CN(C)Cc2nc3cc(C(F)(F)F)ccc3c(=O)[nH]2)ccc1OC(F)F,inactive: -2.72%
16,CC(C)(C)C(=O)N1CCN(C(=O)c2ccco2)CC1,inactive: -12.2%
17,O=S(=O)(c1ccccc1)N1CC=C(c2ccccc2)CC1,inactive: 16.5%
18,O=C(N/N=C/c1cn(-c2ccccc2)nc1-c1cccnc1)c1ccccc1,inactive: -5.05%
19,Cc1ccc(-n2ncc3c2CCCC3NC(=O)CCc2c(C)noc2C)cc1C (stereo not drawn),inactive: 16.8%
20,CC(C)CC[n+]1ccccc1/C=C/c1ccc(N(C)C)cc1,inactive: -3.33%
21,O=C(c1ccc(O)cc1)c1ccc(O)cc1O,inactive: -4.65%
22,Cc1c(Cl)cccc1NC(=O)c1noc2c1CCCC2,inactive: 26.6%
23,COCCCN1CN(Cc2ccco2)CNC1=S,inactive: -9.37%
24,COc1ccc(F)cc1S(=O)(=O)NCCCn1ccnc1,inactive: 2.38%
25,COc1ccc(/C=C/C(=O)OCC(=O)NC2CCCCC2C)c(OC)c1 (stereo not drawn),inactive: 26.9%
26,CC(=O)Nc1ccc(NC(=O)CCc2nc3ccccc3c(=O)[nH]2)cc1,inactive: 0.518%
